# The inconclusive results got no clear call from the source; some entries with a clear call stand among them for comparison. No potency is given beside an inconclusive call; the fits are too rough. Calls of active or inactive are those of the source. Calls follow the shape of the dose curve; as a rule, active = well fitted curve in the direction sought with a large enough effect; inconclusive = small, poorly fitted or top-dose-only effect, or another doubt; inactive = no such curve, though single readings can be large; an effect the other way counts as inactive or inconclusive.
# Experiment: qHTS for Inhibitors of Plasmodium falciparum (DD2) proliferation (AID 504314);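 as to activity, negative = inhibition: parasite DNA measured by SYBR Green fluorescence after red cell lysis; plate controls were DMSO vehicle for no effect and artemisinin wells for full effect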
# Details: P. falciparum Dd2 in erythrocytes, SYBR Green growth, 72 h; activity, negative = inhibition: at 6.11 µM (top of the series)
# Procedure, shortened: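 SYBR Green growth assay: 72 h compound exposure of infected red cells (2.5% hematocrit, 0.3% parasitemia), then lysis and overnight dye staining, fluorescence 485/535 nm. Values scaled between DMSO and 0.29 uM artemisinin controls.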
# Potency is read from the fitted curve at half-maximal effect; tags tell the direction and shape of the fitted curve.
SMILES,"activity, negative = inhibition",Potency
COc1ccc(C(=O)CC(=O)c2c(O)cc(OC)cc2OC)cc1,inactive: 2.43%,–
COc1ccc(O[C@H]2C=C[C@@H](c3ccccc3)O[C@H]2COC(=O)CCC(C)=NO[C@@H]2O[C@H](COC(C)=O)[C@@H](OC(C)=O)[C@H](OC(C)=O)[C@@H]2OC(C)=O)cc1,–,"inconclusive [inhibitor, partial curve, poor fit]"
CC1=CC[C@@H](C)O[C@@]2(C1)C(=O)Nc1ccccc12,–,"inconclusive [inhibitor, partial curve, poor fit]"
C=CCN=C1NC(CCc2ccccc2)C(C(=O)OC)=C(C)N1CC (stereo not given),–,"inconclusive [inhibitor, single point]"
CC(C)CON=C1C[C@@H](O)[C@@H](O)[C@@H]2[C@H]3C(=O)N(C[C@@H]4CCCO4)C(=O)[C@@H]3CC[C@H]12,inactive: 1.41%,–
Cc1c(O)ccc2c1OCO2,inactive: -0.0607%,–
COc1ccc(COC(=O)NN=C2C[C@@H](O)[C@@H](O)[C@@H]3[C@H]4C(=O)N(Cc5ccc6c(c5)OCO6)C(=O)[C@@H]4CC[C@H]23)cc1,inactive: -8.26%,–

# Experiment: qHTS for Inhibitors of Plasmodium falciparum (GB4) proliferation (AID 504315); also: nearly all actives have a fitted effect of over 50% in size;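 as to activity change, negative = inhibition: 0% = DMSO vehicle and -100% = 0.29 µM artemisinin control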
# Details: P. falciparum GB4 in erythrocytes, SYBR Green DNA, 72 h; activity change, negative = inhibition: at 6.7 µM (top of the series)
# Procedure, shortened: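 Parasite growth measured as SYBR Green DNA fluorescence (ex 485, em 535 nm) after overnight lysis following 72 h culture at 37 °C, 0.3% parasitemia, 2.5% hematocrit. Values normalized against DMSO and 0.29 uM artemisinin controls, with plate-stack correction.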
SMILES,"activity change, negative = inhibition",Potency
CCCC[C@]12Cc3c(ccc4ccccc34)[C@H](O1)c1c(cc(C)oc1=O)O2,inactive: 1.96%,–
COC(=O)C1=C(C(=O)OC)[C@@H]2N(Cc3ccccc3)c3ccccc3[C@@]23C[C@@H](C(=O)OC)N(C(C)=O)C3=N1,inactive: 8.04%,–
CCCCc1nc2c(c3c1C[C@H](C)OC3)CN(C(=O)Nc1cccc(C#N)c1)CC2,–,"inconclusive [inhibitor, single point]"
CCC(=O)OC1(C)C(=O)C=C2C=C(c3ccc(C#N)cc3)OC=C2C1=O (stereo not given),inactive: 6.43%,–
CC(CCC(=O)OC[C@H]1O[C@H](C#Cc2ccccc2)C=C[C@H]1Oc1ccc(C)cc1)=NO[C@@H](C)c1cn([C@H](CO)Cc2ccccc2)nn1,–,"inconclusive [inhibitor, full curve, poor fit]"
CCCCc1nc2c(c3c1C[C@H](C)OC3)CN(C(=O)COC)CC2,inactive: 2.55%,–
COCCN1C(=O)N[C@@H](c2cccc(C(F)(F)F)c2)[C@H](C(=O)OC)[C@H]1C,–,inactive
COC(=O)CC=C[C@@H](C)[C@H](NC(=O)OCC(Cl)(Cl)Cl)c1ccc2ccccc2c1,–,"inconclusive [activator, partial curve, poor fit]"
C=CCOC(=O)N[C@H](c1ccccc1)C(C(C)=O)C(C)=O,inactive: -7.05%,–
CO[C@H](c1ccccc1Br)[C@H](C)C=CCCO,inactive: 4.58%,–
C[C@@H]1CC[C@H]2C(=O)N(Cc3ccc(Cl)cc3)C[C@@H](O)CN2[C@@H]1c1ccc(Br)cc1,–,"inconclusive [inhibitor, partial curve, poor fit]"
Cc1cc2c(nc1C)CCCN2CC(O)CN1CCCc2nc(-c3ccc(Br)cc3)ccc21 (stereo not given),–,"inconclusive [activator, full curve, poor fit]"
COC(=O)C1=C(C)N(Cc2ccco2)C(=O)N[C@@H]1c1ccco1,inactive: -2.14%,–
CC1(C)O[C@H]2OC([C@H](O)CON3C(=O)c4ccccc4C3=O)[C@H](O)[C@@H]2O1 (stereo not given in full),inactive: 6.97%,–
CC1(OC(=O)CCc2ccccc2)C(=O)C=C2C=C(c3ccc(C#N)cc3)N(C3CCCCC3)C=C2C1=O (stereo not given),inactive: 4.03%,–
CC1=C(C)CC(c2ccccc2)C(C(=O)c2ccccc2O)C1 (stereo not given),inactive: 4.19%,–
COC(=O)C1=NOC2(C=C(Br)C(OC)=C(Br)C2=O)C1 (stereo not given),inactive: 2.13%,–
CC[C@H](C)[C@@H](NC(=O)O[C@@H]1C(=O)c2ccc(OC)cc2O[C@H]1c1ccc2c(c1)OCO2)C(=O)OC,inactive: 4.84%,–
COc1cc2c(c(OC)c1)[C@H](C=Cc1ccccc1)[C@@H]([C@H](O)CO)OC2,–,"inconclusive [activator, full curve, poor fit]"
COC(=O)N[C@H](C[N+](=O)[O-])C(C)(C)C,inconclusive: 17.6% [activator],–
COc1cccc(CO[C@H]2C=C[C@@H](c3ccccc3)O[C@H]2CBr)c1,inactive: -6.75%,–
COC(=O)C(C(=O)OC)C1c2ccccc2C=C(C)N1C(=O)OC (stereo not given),–,"inconclusive [inhibitor, single point]"
CCOC(=O)CN1C(=O)N[C@@H](c2cccc(C(F)(F)F)c2)[C@@H](C(=O)OC)[C@H]1C,–,"inconclusive [activator, partial curve, poor fit]"
